Measured values reported in a compilation of properties of binary mixtures (doi:10.1063/1.471076).
Some of these densities may be calculated back from excess volumes.

Test: xn = mol fraction of the nth substance listed
Details: 101 kPa, x1 = 0.766

CC[NH3+].O=[N+]([O-])[O-] + CCCCCCCCO
Details	mass density [kg/m3]
313.57 K	1065
313.58 K	1065
313.59 K	1065
313.61 K	1065
313.62 K	1065
313.65 K	1065
313.67 K	1065
313.7 K	1065
313.72 K	1064.9
313.73 K	1064.9
313.74 K	1064.9
313.83 K	1064.9
313.92 K	1064.8
314.02 K	1064.8
314.17 K	1064.7
314.38 K	1064.5
314.66 K	1064.4
314.76 K	1064.3
314.97 K	1064.2
315.17 K	1064
315.58 K	1063.8
316.6 K	1063.1
317.3 K	1062.7
320.18 K	1060.7
322.16 K	1059.4
323.04 K	1058.7
325.03 K	1057.3
332.99 K	1051.2
